# Results taken from publication PMC4336329 (PLoS ONE, 2015).
# The campaign covered roughly 310,000 compounds. About 14,000 (4.5%) showed an effect of 50% or more. Effects have a minus sign here. The list shows a part of the results.
# Target: human ether-à-go-go-related gene (hERG) potassium channel (human, UniProt Q12809)
# Experiment: primary screen, population patch clamp on CHO cells stably expressing hERG
# 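Further: peak tail current of the secondary pulse compared with the same well before compound.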
# human ether-à-go-go-related gene (hERG) potassium channel, sequence (Q12809 whole entry, looked up): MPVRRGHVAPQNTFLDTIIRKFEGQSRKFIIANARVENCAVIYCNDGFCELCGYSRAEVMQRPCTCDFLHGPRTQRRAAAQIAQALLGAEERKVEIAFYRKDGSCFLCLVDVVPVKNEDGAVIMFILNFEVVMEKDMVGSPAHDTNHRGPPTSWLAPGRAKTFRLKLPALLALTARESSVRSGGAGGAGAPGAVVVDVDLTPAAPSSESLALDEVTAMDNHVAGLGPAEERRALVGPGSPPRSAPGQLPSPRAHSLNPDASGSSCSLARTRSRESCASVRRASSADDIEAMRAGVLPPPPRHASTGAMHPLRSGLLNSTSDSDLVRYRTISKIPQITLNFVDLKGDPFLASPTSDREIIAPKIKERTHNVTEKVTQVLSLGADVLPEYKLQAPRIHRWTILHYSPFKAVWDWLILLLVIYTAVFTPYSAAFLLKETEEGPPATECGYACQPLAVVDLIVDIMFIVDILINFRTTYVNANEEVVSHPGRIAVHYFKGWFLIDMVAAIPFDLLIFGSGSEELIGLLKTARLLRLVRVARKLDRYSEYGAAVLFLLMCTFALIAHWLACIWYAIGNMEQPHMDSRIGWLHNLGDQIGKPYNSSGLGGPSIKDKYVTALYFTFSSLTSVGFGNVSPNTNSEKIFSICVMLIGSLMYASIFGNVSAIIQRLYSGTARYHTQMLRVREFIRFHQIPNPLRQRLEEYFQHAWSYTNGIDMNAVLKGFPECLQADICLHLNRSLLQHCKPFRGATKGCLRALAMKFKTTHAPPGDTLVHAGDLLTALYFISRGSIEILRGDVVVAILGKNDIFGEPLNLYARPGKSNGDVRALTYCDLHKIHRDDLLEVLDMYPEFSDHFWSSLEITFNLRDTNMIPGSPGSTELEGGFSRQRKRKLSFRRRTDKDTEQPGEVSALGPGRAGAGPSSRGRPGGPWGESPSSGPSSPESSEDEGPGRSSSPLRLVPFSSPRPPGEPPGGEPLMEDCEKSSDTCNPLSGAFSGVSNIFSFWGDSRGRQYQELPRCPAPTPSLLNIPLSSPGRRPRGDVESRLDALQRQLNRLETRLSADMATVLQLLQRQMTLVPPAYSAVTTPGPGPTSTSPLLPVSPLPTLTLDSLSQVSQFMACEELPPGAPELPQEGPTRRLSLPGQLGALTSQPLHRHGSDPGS
row,SMILES,"hERG current change (%, negative = inhibition) at 10uM [%]"
1,CCOC(=O)C1CCN(C(=O)Nc2c(-c3ccccc3)noc2C)CC1,20.6
2,O=c1c(Cc2ccc(Cl)cc2Cl)c(O)ccn1CCCN1CCOCC1,-6.58
3,O=C(Nc1ccccc1)C(=O)Nc1cccnc1,22.8
4,Cc1nc2nc(C)c(CCC(=O)N3CCN(c4ccccn4)CC3)c(C)n2n1,-46.1
5,COc1ccc(C(=O)N2CCN(c3ccccc3Cl)CC2)cc1S(=O)(=O)NC1CC1,-32.7
6,COc1ccccc1NS(=O)(=O)c1cccc(C(=O)N/N=C/c2ccc(OCC(=O)O)cc2)c1,17.1
7,Cc1ccc(S(=O)(=O)C2(C(=O)N3CCCCC3C)CC2)cc1 (centres unmarked),1.58
8,CC(C)n1c(SCC(=O)NC2CC2)nnc1C1CC1,8.5
9,CC1CC(C)CN(C(=O)c2ccncc2)C1 (centres unmarked),10.1
10,CCN1CCN(c2cc(N3CCc4ccccc4C3)c(F)cc2[N+](=O)[O-])CC1,-51.9
11,CCc1ccccc1NC(=O)c1cccs1,-2.58
12,O=[N+]([O-])c1cccc(Cl)c1CSc1ccccn1,6.81
13,CCCn1c(=O)c(C(=O)Nc2c(C)n(C)n(-c3ccccc3)c2=O)c(O)c2ccccc21,-12
14,S=C(NCC1CCCO1)Nc1ccc(Cl)cc1 (centres unmarked),27.4
15,CCOC(=O)N1CCN(S(=O)(=O)N2CCCC(C(=O)NCc3ccccc3OC)C2)CC1 (centres unmarked),-38
16,CC(=O)N1CC=C2C(C#N)=C(N)C(C#N)(C#N)C(CCc3ccccc3)C2C1 (centres unmarked),-27.6
17,Cc1ccc(NS(=O)(=O)c2cc(NC(=O)c3ccc4c(c3)NC(=O)CS4)ccc2C)c(C)c1,12
18,COc1ccc(-c2nn(-c3ccccc3)cc2C2CC(c3cccs3)=NN2C(=O)CCC(=O)O)cc1 (centres unmarked),30.4
19,CC(OCC(O)CN(C)Cc1nc2ccccc2c(=O)[nH]1)c1ccc(Cl)cc1 (centres unmarked),-34
20,CCCNC(=O)N1[C@H]2CC[C@@H]1C(C(=O)OC)=C(c1cccc(Cl)c1)C2,42.8
21,Cc1c(OC(C)C(=O)NCCCN2CCOCC2)ccc2c3c(c(=O)oc12)CCC3 (centres unmarked),13.6
22,CNC(=S)Nc1ccc(N2CCN(c3ccc(C(F)(F)F)cn3)CC2)nc1,6.29

row,SMILES,"hERG current change (%, negative = inhibition) at 10uM [%]"
1,N#CCCN=C(NS(=O)(=O)c1ccccc1)c1ccccc1,-2.03
2,CCN(CC)CCn1c2c(c(SCC(=O)Nc3cc(OC)cc(OC)c3)nc1=O)CCC2,-70.1
3,CCOn1c(=O)c(C)[n+]([O-])c2ccccc21,-10.1
4,O=C(O)CC1S/C(=N\N=C/c2ccccc2O)N(c2ccc(O)cc2)C1=O (centres unmarked),9.18
5,COC(=O)CNc1n[nH]c(=S)[nH]c1=O,6.57
6,Clc1ccc2nc(C3CCN(Cc4ccccc4)CC3)[nH]c2c1,-73.4
7,N#Cc1c(N)n[nH]c1-c1cc2c([nH]1)CCCC2,-13.4
8,O=C(NC(=S)Nc1ccc(N2CCOCC2)cc1)c1cccc(Cl)c1,9.7
9,C=CCn1c(=O)/c(=C2/SC(C)=C(C)N2CC)s/c1=C1/C(=O)N(CC)C(=S)N1c1ccccc1,-4.43
10,COc1ccc(OC)c(CN2CCN(C(=O)c3cccc(S(=O)(=O)Nc4ccccc4OC)c3)CC2)c1,-38.2
11,Cc1cccc(-c2n[nH]c([N+](=O)[O-])n2)c1,9.56
12,COC(=O)c1ccc(C(=O)N2CCCC(Nc3ccc(F)c(F)c3)C2)cc1 (centres unmarked),-16.4
13,COc1ccccc1NC(=O)COC(=O)c1oc2ccccc2c1C,22.5
14,Cc1cnc(-c2nnc(N(C)C(=O)C3CCCO3)s2)cn1 (centres unmarked),2.91
15,Cc1cccc(NC(=S)N/N=C/c2ccc3c(c2)OCO3)c1,-2.58
16,COc1cccc(-c2nc(N3CCC(C)CC3)c3ccccc3n2)c1O,9.37
17,COc1ccc(N2CCN(c3nc4c(c(=O)n(C)c(=O)n4C)n3CCCc3ccccc3)CC2)cc1,13.4
18,c1ccc(Nc2nc(Nc3ccccc3)nc(N3CCNCC3)n2)cc1,-8.35
19,O=C(NCCc1ccccc1)C1CC(=O)N(C2CCCC2)C1 (centres unmarked),16.1
20,O=C(CCN1C(=O)C2CC=CCC2C1=O)Nc1nc(-c2ccc(F)c(F)c2)cs1 (centres unmarked),-37.6
21,COc1ccc(/C=N\N2CCN(Cc3ccccc3Cl)CC2)cc1.Cl,-62.4
22,CCOc1ccc(N(CCC#N)S(=O)(=O)c2ccc(OC)cc2)cc1,-33.3
